What all share (assay): Primary Screen for Target Class Profiling of Small Molecule Inhibitors of Methyltransferases
Assay [1] deals with Glycine N-methyltransferase (Homo sapiens) (UniProt Q14749). The following applies: purified enzyme, MTase-Glo SAH luminescence; measured here: GNMT inhibition; at 40 µM; stronger effect = lower value. In short, it runs like this: (§1)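 Each enzyme was assayed with SAM and its substrate. SAH formation detected by MTase-Glo luminescence; single-point 40 uM screen[…].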
The target in assay [2] is Guanidinoacetate N-methyltransferase (Homo sapiens) (UniProt Q14353). Particulars: purified enzyme, MTase-Glo SAH luminescence; measured here: GAMT inhibition; at 40 µM; stronger effect = lower value. The method, boiled down: as §1
Assay [3] addresses Histamine N-methyltransferase (Homo sapiens) (UniProt P50135). Particulars: purified enzyme, MTase-Glo SAH luminescence; measured here: HNMT inhibition; at 40 µM; stronger effect = lower value. In short, it runs like this:
as §1

Assay [4] concerns the target Nicotinamide N-methyltransferase (Homo sapiens) (UniProt P40261). Particulars: purified enzyme, MTase-Glo SAH luminescence; measured here: NNMT inhibition; at 40 µM; stronger effect = lower value. In short, it runs like this:
as §1

The target of assay [5] is Phenylethanolamine N-methyltransferase (Homo sapiens) (UniProt P11086). Particulars: purified enzyme, MTase-Glo SAH luminescence; measured here: PNMT inhibition; at 40 µM; stronger effect = lower value. In short, it runs like this:
as §1

Values joined by “and” are separate entries in the source; they are usually repeats but may differ in a detail not shown here. Equal entries are not always repeated. The list shows a part of the results. Further columns of the screen follow, without active or inactive calls.
On the % scale 0 is the no-effect control and ±100 the full control effect.

As to `Cc1cccc(NC(=O)N2Cc3ccccc3-n3cccc3C2c2cccc(Cl)c2)c1C` (stereo not drawn), the activity change, negative = inhibition in assay [1] is 4.69%; in assay [2], 0.482%; in assay [3], -0.586%; in assay [4] it was 3.01%; in assay [5], 2.71%.
Taken in the same sequence, the figures for `Cc1cc(C)cc(NC(=O)N2Cc3ccccc3-n3cccc3C2c2ccc(Cl)cc2)c1` (stereo not drawn) were 0.387%, 0%, 3.64%, 4.33% and 3.65%.
Taken in the same sequence, the figures for `CCOc1ccc(C2c3cccn3-c3ccccc3CN2C(=O)Nc2ccc(F)cc2)cc1` (stereo not drawn) were 0.282%, 0%, 7%, 6.37% and 5.74%.
Taken in the same sequence, the figures for `CC(=O)c1cccc(NC(=O)NC[C@H]2C[C@@H]3CCN2C[C@@H]3c2cc(-c3ccc(F)cc3)nc(C)n2)c1` were -73.6%, -9.32%, -19.9%, -39.5% and -12%.
In the case of `CCOc1ccc(NC(=O)N2Cc3ccccc3-n3cccc3C2c2ccc(N(C)C)cc2)cc1` (stereo not drawn), the activity change, negative = inhibition in assay [1] worked out at 12.2%; in assay [2], 0%; in assay [3], 8%; in assay [4], 3.71%; in assay [5], 5.1%.
The matching figures for `C=C1C[C@]2(O)[C@@]3(C)CCC(=O)C(C)(C)C3=C(O)C(=O)[C@@]2(C)[C@@H]2C(=O)O[C@@](C)(C(=O)OC)C(=O)[C@@]12C`: 1.76%, -2.7%, 7.56%, -13.8% and 0.559%.
The matching figures for `O=C1NC[C@H]2CN(C3CCOCC3)CCN12`: -3.74%, -5.63%, -1.23%, -9.16% and -5.7%.
Consider `COCCCNC(=O)N1Cc2ccccc2-n2cccc2C1c1cccc(Cl)c1` (stereo not drawn), for which the activity change, negative = inhibition in assay [1] turned out to be 12.3%; in assay [2] it was 4.33%; in assay [3], 5.9%; in assay [4], 1.97%; in assay [5], 9.83%.
Turning to `O=C1C=CC(=O)C=C1`, the activity change, negative = inhibition in assay [1] is -0.763%; in assay [2], 13.8%; in assay [3] it was 3.41%; in assay [4] it was -2.21%; in assay [5] it was 6.01%.
Take `COc1ccc(C2c3cccn3-c3ccccc3CN2C(=O)NC2CCCC2)cc1OC` (stereo not drawn): the activity change, negative = inhibition in assay [1] was 2.11%; in assay [2] it was 0%; in assay [3], -4.3%; in assay [4] it was -9.91%; in assay [5] it was -0.566%.
Taken in the same sequence, the figures for `CCc1ccc(C2c3cccn3-c3ccccc3CN2C(=O)Nc2ccccc2F)cc1` (stereo not drawn) were 11.8%, 0%, 5.76%, -0.222% and 5.8%.
Take `CCC1c2cccn2-c2ccccc2CN1C(=O)Nc1cccc(OC)c1` (stereo not drawn): the activity change, negative = inhibition in assay [1] is 2.92%; in assay [2], 0%; in assay [3] it was 6.13%; in assay [4], -0.673%; in assay [5], 7.39%.
Taken in the same sequence, the figures for `CSCC(=O)Nc1ccc(=O)n2c1[C@@H]1C[C@@H](CN(C(=O)NC3CCCCC3)C1)C2` were -6.82%, -8.03%, -1.96%, -11.3% and -6.56%.
The matching figures for `O=C(Nc1ccc(=O)n2c1[C@@H]1C[C@@H](CN(S(=O)(=O)c3ccccc3)C1)C2)c1ccco1`: -4.5%, -2.65%, -1.49%, -3.96% and -2.18%.
As for `NN=C(N)N`, the activity change, negative = inhibition is 3.51% and 3.31% in assay [1]; 7.67% and -11% in assay [2]; -1.11% and -11.8% in assay [3]; -2.25% and -8.77% in assay [4]; 7.51% and -0.705% in assay [5].
On to `Cc1sc2c(c1C)C(c1ccc(Cl)cc1)=NC(CC(=O)Nc1ccc(O)cc1)c1nnc(C)n1-2` (stereo not drawn), for which the activity change, negative = inhibition in assay [1] is -11.3% and -6.45%; in assay [3], 3.43% and 5.97%; in assay [4], -23%; in assay [5], 21.1%.
For `CCOc1ccc(C2c3cccn3-c3ccccc3CN2C(=O)NC2CCCC2)cc1` (stereo not drawn), the activity change, negative = inhibition was -2.26% in assay [1]; 3.29% in assay [2]; 2.58% in assay [3]; -4.91% in assay [4]; 1.98% in assay [5].
The matching figures for `CCOc1ccc(NC(=O)N2Cc3ccccc3-n3cccc3C2c2ccc(Cl)cc2)cc1` (stereo not drawn): -1.21%, 4%, 5.74%, 3.68% and 0.733%.
With `CCOc1ccccc1NC(=O)N1Cc2ccccc2-n2cccc2C1c1ccc(OC)cc1` (stereo not drawn), the activity change, negative = inhibition in assay [1] is 11.6%; in assay [2] it was 0%; in assay [3], 5.41%; in assay [4], -1.52%; in assay [5], 5.04%.
Taken in the same sequence, the figures for `Cc1ccc(NC(=O)N2Cc3ccccc3-n3cccc3C2c2ccccc2)cc1` (stereo not drawn) were 8.12%, -0.265%, 0.377%, -8.52% and -0.991%.
The matching figures for `NC1CCc2cc(O)c(O)cc2C1` (stereo not drawn): -45%, 13.8%, -5.7%, -7.11% and -5.03%.
In the case of `CCC1c2cccn2-c2ccccc2CN1C(=O)Nc1ccccc1Br` (stereo not drawn), the activity change, negative = inhibition in assay [1] was -9.64%; in assay [2], 0.096%; in assay [3] it was -4.9%; in assay [4], -6.37%; in assay [5] it was 1.12%.
The matching figures for `O=C(Nc1ccc2n(c1=O)C[C@H]1C[C@@H]2CN(CC2CCCCC2)C1)C1CCCCC1`: -14.8%, -7.54%, -13.3%, -19.3% and -15.2%.
The matching figures for `CN1C(=O)[C@H]2CN(Cc3ccsc3)C[C@H]2C1=O`: -2.39%, -1.82%, -0.953%, -5.92% and -0.156%.
With `CC(=O)NC[C@H]1C[C@@H]2CCN1C[C@@H]2c1cc(-c2ccc3ccccc3c2)nn1C`, the activity change, negative = inhibition in assay [1] is -9.15%; in assay [2], -1.77%; in assay [3] it was -65.9%; in assay [4], -8.7%; in assay [5] it was -22.3%.
The matching figures for `COc1ccccc1NC(=O)N1Cc2ccccc2-n2cccc2C1c1ccc(C)cc1` (stereo not drawn): 4.27%, 4.27%, -2.96%, -4.68% and 1.03%.
Taken in the same sequence, the figures for `Cc1ccc(NC(=O)N2Cc3ccccc3-n3cccc3C2c2ccccc2Cl)cc1` (stereo not drawn) were 5.13%, 5.6%, -3.37%, -1.83% and 2.39%.
The matching figures for `CCOc1ccc(NC(=O)N2Cc3ccccc3-n3cccc3C2c2cc(F)cc(F)c2)cc1` (stereo not drawn): 5.49%, 0%, 5.16%, 4.28% and 2.48%.
`COC(=O)C1(C)CCC(O)C2(C)c3cc(O)c(C(C)C)cc3C(O)C(OC(C)=O)C12` (stereo not drawn): the activity change, negative = inhibition is 2.8% in assay [1]; 4.17% in assay [2]; 10.2% in assay [3]; -8.85% in assay [4]; -0.674% in assay [5].
As for `Cc1sc2c(c1C)C(c1ccc(Cl)cc1)=NC(CC(N)=O)c1nnc(C)n1-2` (stereo not drawn), the activity change, negative = inhibition in assay [1] was -20.3%; in assay [3], -3.02%; in assay [4], -21.9%; in assay [5], 18.5%.
Consider `Cc1cnc(N2CC3CCC(C2)N3CC(F)(F)F)c([N+](=O)[O-])c1`, for which the activity change, negative = inhibition in assay [1] was -7.42%; in assay [2] it was -9.79%; in assay [3] it was -4.84%; in assay [4] it was -19.2%; in assay [5] it was -11.6%.
